Measured values taken from the supplement of paper PMC6206098.
± gives the uncertainty stated by the source. The sequences are guide strands of siRNAs; only the seed at positions 2 to 7 varies.

Assays:
[1] = test system: H460; test: cell viability relative to lipid-only control; higher = less toxic; details: concentration: 10 nM; 96 h; Homo sapiens
Protocol: (§1)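 Arrayed screen of 4096 siRNA duplexes, each carrying one of all possible 6mer seeds at guide-strand positions 2-7 in a fixed neutral 19mer scaffold (constant flanks: U at position 1, then ACAUGUAAACCA, plus a 3' AA overhang). The passenger strand is 2'-O-methylated at positions 1-2 so only the guide strand loads into RISC. Duplexes were reverse-transfected at 10 nM with RNAiMAX in triplicate in 384-well plates; viability was read by CellTiter-Glo ATP content 96 h after transfection. Values are % viability normalised to lipid-only wells (HeyA8, H460, M565) or to siNT1 (3LL).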

[2] = test system: HeyA8; test: as above; details: concentration: 10 nM; 96 h; Homo sapiens
Protocol: as §1

[3] = test system: M565; test: as above; details: concentration: 10 nM; 96 h; Mus musculus
Protocol: as §1

[4] = test system: 3LL; test: cell viability relative to siNT1 control; HeyA8 human ovarian and H460 human lung cancer; M565 mouse liver and 3LL mouse lung cancer; siNT1 is a non-toxic control siRNA; higher = less toxic; details: concentration: 10 nM; 96 h; Mus musculus;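 further: Luminescence-based viability of cells reverse transfected in 384-well plates with lipid-complexed siRNAs built on a non-toxic 19mer backbone whose passenger strand carries 2′-O-methyl groups at positions 1 and 2, triplicates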
Protocol: as §1
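Wherever cell viability relative to lipid-only control is given: reverse lipid transfection in 384-well plates, in triplicate, of duplexes on a non-toxic 19mer backbone with passenger strand 2′-O-methylated at positions 1 and 2, luminescence viability read-out.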

Row | Sequence | cell viability [1] | cell viability [2] | cell viability [3] | cell viability [4]
1 | UCGAAUGACAUGUAAACCAAA | 64.8 ± 6.4% | 85.7 ± 6% | 77.3 ± 7.5% | 90.2 ± 16%
2 | UACAAGGACAUGUAAACCAAA | 68.1 ± 4.5% | 62.5 ± 4% | 28.1 ± 4.8% | 54.5 ± 11%
3 | UCACCUCACAUGUAAACCAAA | 32.4 ± 7.1% | 57.9 ± 1.4% | 60.3 ± 9.2% | 74.9 ± 19%
4 | UCAACGAACAUGUAAACCAAA | 62.9 ± 14% | 84.4 ± 3.5% | 65.5 ± 7.6% | 89.7 ± 19%
5 | UCAUUCGACAUGUAAACCAAA | 37.8 ± 2.9% | 70.7 ± 2.1% | 51.1 ± 9.5% | 90.3 ± 14%
6 | UAAAGCUACAUGUAAACCAAA | 51.1 ± 3% | 47.3 ± 3.5% | 61.1 ± 18% | 53.4 ± 2.4%
7 | UGAGGUAACAUGUAAACCAAA | 73.4 ± 10% | 74.4 ± 5.3% | 19.1 ± 6% | 92.3 ± 11%
8 | UCAAAGUACAUGUAAACCAAA | 59.9 ± 15% | 55.4 ± 2.3% | 41.1 ± 4.3% | 81.2 ± 14%
9 | UCUAUACACAUGUAAACCAAA | 65.1 ± 14% | 91.5 ± 2.5% | 55.2 ± 11% | 94.4 ± 18%
10 | UGACUACACAUGUAAACCAAA | 34.4 ± 4.6% | 39.1 ± 2.9% | 19.4 ± 1.5% | 70.6 ± 27%
11 | UCCUCGCACAUGUAAACCAAA | 74.6 ± 11% | 39.2 ± 6% | 34.8 ± 7.7% | 64.3 ± 25%
12 | UUUCGAGACAUGUAAACCAAA | 79.3 ± 14% | 100 ± 2.7% | 87.9 ± 17% | 94.9 ± 7.4%
13 | UUGUCUAACAUGUAAACCAAA | 64.3 ± 6.9% | 82.5 ± 5% | 98.3 ± 13% | 87.9 ± 1.9%
14 | UAGCUUUACAUGUAAACCAAA | 66.2 ± 9.3% | 40.6 ± 1.7% | 48.4 ± 14% | 83.1 ± 2.2%
15 | UAUGAAAACAUGUAAACCAAA | 77.3 ± 8.6% | 95.3 ± 8.2% | 85.5 ± 21% | 112 ± 20%
16 | UAUGUUAACAUGUAAACCAAA | 82 ± 9.3% | 101 ± 10% | 99.6 ± 12% | 110 ± 6.9%
17 | UUCAUGAACAUGUAAACCAAA | 45.7 ± 6% | 87.5 ± 12% | 100 ± 14% | 79.5 ± 21%
18 | UCUCUCGACAUGUAAACCAAA | 32.8 ± 3.9% | 87.6 ± 8.4% | 67.2 ± 12% | 101 ± 11%
19 | UGUUUCUACAUGUAAACCAAA | 51.2 ± 2.3% | 25.9 ± 4.6% | 80.6 ± 5.1% | 88.6 ± 3.6%
20 | UAAUAGAACAUGUAAACCAAA | 80.9 ± 3.7% | 95.8 ± 4.2% | 95.2 ± 12% | 119 ± 17%
21 | UCGGGGUACAUGUAAACCAAA | 20.4 ± 2.2% | 6.21 ± 1.2% | 28.8 ± 4.2% | 36.1 ± 12%
22 | UACUUCUACAUGUAAACCAAA | 61.1 ± 2.8% | 38 ± 4.1% | 56.8 ± 11% | 66.6 ± 7.8%

Row | Sequence | cell viability [1] | cell viability [2] | cell viability [3] | cell viability [4]
23 | UCUUCCAACAUGUAAACCAAA | 68.4 ± 11% | 80.1 ± 11% | 82.1 ± 11% | 89.5 ± 8.8%
24 | UAGCUAAACAUGUAAACCAAA | 68.3 ± 13% | 83.05 ± 0.52% | 54.6 ± 8.7% | 83 ± 6.9%
25 | UAGCCACACAUGUAAACCAAA | 60.9 ± 6.6% | 68.2 ± 5.3% | 22 ± 2.8% | 44.1 ± 3.5%
26 | UGGCGGCACAUGUAAACCAAA | 21.6 ± 4.3% | 5.09 ± 0.93% | 10 ± 2.2% | 3.81 ± 2.1%
27 | UAGUACAACAUGUAAACCAAA | 45.3 ± 7.5% | 54.6 ± 1% | 107 ± 4.1% | 53.1 ± 7.1%
28 | UGACAGCACAUGUAAACCAAA | 20.7 ± 3.1% | 2.94 ± 0.64% | 6.78 ± 2.7% | 25 ± 2.6%
29 | UCACUGCACAUGUAAACCAAA | 20.1 ± 3.3% | 17 ± 2.2% | 28.1 ± 3.7% | 33.2 ± 7.2%
30 | UUCAUAUACAUGUAAACCAAA | 55.9 ± 5.7% | 84.2 ± 7.5% | 67.5 ± 12% | 90.3 ± 14%
31 | UGAAUUGACAUGUAAACCAAA | 59.6 ± 5.4% | 71 ± 7.1% | 40.9 ± 1.7% | 96.1 ± 14%
32 | UACCAUCACAUGUAAACCAAA | 48.9 ± 3.9% | 45.4 ± 0.94% | 16.7 ± 6.3% | 33.3 ± 5.2%
33 | UCAUCCUACAUGUAAACCAAA | 36.5 ± 2.5% | 53.5 ± 6.4% | 42.8 ± 4.8% | 64.9 ± 7.5%
34 | UCUGCCCACAUGUAAACCAAA | 38.9 ± 3.8% | 35.8 ± 4.8% | 12.2 ± 3.4% | 35.8 ± 11%
35 | UAGACGGACAUGUAAACCAAA | 51.9 ± 7.6% | 75.1 ± 8.6% | 78.8 ± 5.9% | 81.1 ± 15%
36 | UUUGGGGACAUGUAAACCAAA | 54.3 ± 4.2% | 73.7 ± 5.7% | 31.8 ± 2.1% | 76.9 ± 4.7%
37 | UGUGCAGACAUGUAAACCAAA | 67.7 ± 16% | 75.8 ± 9% | 64.2 ± 4.4% | 76.2 ± 6.7%
38 | UGAUGCCACAUGUAAACCAAA | 7.69 ± 2% | 4.07 ± 0.055% | 32.3 ± 5.8% | 22 ± 9.9%
39 | UAUCGGCACAUGUAAACCAAA | 69.7 ± 6.6% | 77.1 ± 7.2% | 65.1 ± 20% | 72.7 ± 9.3%
40 | UCUGUAUACAUGUAAACCAAA | 63.8 ± 10% | 84.5 ± 7.7% | 44.1 ± 8.2% | 90.3 ± 10%
41 | UAAAGAUACAUGUAAACCAAA | 76 ± 10% | 90.9 ± 4.2% | 92.6 ± 9.3% | 94.1 ± 6.4%
42 | UGAGUCCACAUGUAAACCAAA | 15.5 ± 4.6% | 32.1 ± 6.6% | 4.2 ± 0.58% | 2.4 ± 0.22%
43 | UUGGAGAACAUGUAAACCAAA | 60.5 ± 4.1% | 67.8 ± 2.4% | 33.1 ± 9% | 29.5 ± 5.1%
44 | UAGGAAAACAUGUAAACCAAA | 61.7 ± 7.3% | 87.8 ± 10% | 63.7 ± 4.7% | 88.1 ± 14%
